Measurements published in PubChem BioAssay AID588855 (National Center for Advancing Translational Sciences (NCATS), 2011).
The campaign covered roughly 410,000 compounds. About 5,000 (1.2%) were called active. Inconclusive results, whose numbers are uncertain, are shown with a selection of clear calls. Calls come from the whole dose curve; as a rule, active = well fitted inhibition curve with a large enough effect; inconclusive = small, poorly fitted or top-dose-only effect; inactive = no such curve, though single readings can be large or run the other way. A potency beside an inconclusive call is a rough fit, not a confirmed value.
% is set by controls: 0 for no effect and ±100 for the full control effect; potency is the fitted concentration of half-maximal effect; tags give direction and shape of the fitted curve.

Test: qHTS for Inhibitors of TGF-b; note: nearly all actives have a fitted effect of over 65% in size
Details: HepG2 CAGA-GFP TGF-b/SMAD3 reporter, GFP fluorescence, 18 h, TGF-beta stimulated, 500 pg/mL final; series mostly up to 46.1 µM; activity, negative = inhibition: at the top concentration
In short: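 Smad-responsive CAGA-GFP expression was quantified in HEPG2 cells exposed to compounds and 500 pg/mL final TGF-beta for 18 h at 37 degrees C; unstimulated wells defined full inhibition.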
With `CCOC(=O)C1=C(CNCCc2ccc(Cl)cc2)NC(=O)NC1c1cccc([N+](=O)[O-])c1` (stereo not given) the Potency was inconclusive: 31.6 µM [inhibitor, single point].
With `CCOC(=O)N1CCN(Cc2nc3c(c(=O)n(C)c(=O)n3C)n2CCC(C)C)CC1` the “activity, negative = inhibition” value was inactive: -11.6%.
In the case of `COC(=O)C1C=CC(OC2OC(COC(C)=O)C(OC(C)=O)C(OC(C)=O)C2OC(C)=O)n2c(=O)n(-c3ccccc3)c(=O)n21` (stereo not given), the Potency is reported as inconclusive: 2.24 µM [inhibitor, full curve].
In the case of `Cc1ccc(-c2ccc(=O)n(CC(=O)N3CCN(c4cccc(C)c4)C(C)C3)n2)cc1` (stereo not given), the Potency is reported as inconclusive: 15.8 µM [inhibitor, single point].
With `Cc1ccc(CN2CCN(Cc3cnc(C)s3)CC2CCO)cc1` (stereo not given) the “activity, negative = inhibition” value was inactive: -2.41%.
In the case of `COc1c(/C=C2\SC(=Nc3ccccc3Cl)NC2=O)cccc1[N+](=O)[O-]`, the Potency is reported as inconclusive: 35.5 µM [inhibitor, single point].
For `Cc1ccc(S(=O)(=O)CCC(=O)OCC(=O)N(Cc2ccccc2)C(C)C)cc1`, the “activity, negative = inhibition” value was inactive: 6.73%.
In the case of `CC(NC(c1ccccc1)c1ccccc1)C(=O)N1CCCc2ccccc21` (stereo not given), the Potency is reported as inconclusive: 35.5 µM [inhibitor, single point].
With `O=C(CSc1nnc(-c2c[nH]c3ccccc23)n1C1CC1)NC1CCS(=O)(=O)C1` (stereo not given) the “activity, negative = inhibition” value was inactive: 4.14%.
With `CCCCOC(=O)Cn1c(=N)n(CCN2CCOCC2)c2ccccc21` the “activity, negative = inhibition” value was inactive: 6.63%.
For `Cc1nn2cc(-c3cccc(Cl)c3)cnc2c1Br`, the “activity, negative = inhibition” value was inactive: -7.47%.
In the case of `O=C1CC(N2CCN(c3ccccc3)CC2)C(=O)N1c1cccc(Cl)c1` (stereo not given), the “activity, negative = inhibition” value is reported as inactive: 0.192%.
In the case of `CC(=O)c1ccc(NC(=O)C2CCCN(S(=O)(=O)c3ccc4c(c3)CCCN4C(C)=O)C2)cc1` (stereo not given), the Potency is reported as inconclusive: 17.8 µM [inhibitor, single point].
With `COc1ccc(N(CC(=O)N/N=C/c2ccc(OC3CSC3)cc2)S(=O)(=O)c2ccccc2)cc1` the Potency was inconclusive: 20 µM [inhibitor, single point].
With `Cc1nc2nc(-c3ccc(Cl)cc3Cl)nn2c(C)c1CCC(=O)Nc1ccc(F)cc1` the “activity, negative = inhibition” value was inactive: 8.73%.
In the case of `O=[N+]([O-])c1ccccc1S(=O)(=O)N1CCCc2ccccc21`, the Potency is reported as inconclusive: 35.5 µM [inhibitor, single point].
In the case of `CCOc1cccc2cc(C(=O)Nc3ccccc3-c3ccccc3)c(=O)oc12`, the Potency is reported as inconclusive: 6.31 µM [inhibitor, single point].
For `O=C(NCc1ccccc1)c1cccc(S(=O)(=O)NCc2ccccc2)c1`, the Potency was inconclusive: 3.55 µM [inhibitor, single point].
In the case of `Cc1c(C(=O)NC(C)C)c(-c2ccccc2)nn1-c1ccccc1`, the “activity, negative = inhibition” value is reported as inactive: -0.641%.
With `Cc1sc(NC(=O)CSc2nnc(-c3ccccc3)o2)c(C#N)c1C` the Potency was inconclusive: 12.6 µM [inhibitor, single point].
With `COc1ccc(CCNC(=O)CSc2nnc(-c3ccccc3)c3ccccc23)cc1OC` the Potency was inconclusive: 15.8 µM [inhibitor, single point].
For `COc1ccc(CNC(=S)Nc2cccc(C)c2)cc1`, the Potency was inconclusive: 35.5 µM [inhibitor, single point].
For `CCC(=O)OCCNc1cc(Sc2nccn2C)c2nonc2c1[N+](=O)[O-]`, the Potency was active: 11.2 µM.
In the case of `O=C(/C=C/c1ccccc1[N+](=O)[O-])NCC1CCCO1` (stereo not given), the Potency is reported as inconclusive: 0.112 µM [inhibitor, full curve, poor fit].
For `COc1ccc(-c2nc(N)ncc2-c2ccccc2OC)c(O)c1`, the “activity, negative = inhibition” value was inactive: -24.4%.
With `O=C(COc1ccc(F)cc1)Nc1ccccc1C(=O)OCc1cc(=O)n2nc(C3CC3)sc2n1` the “activity, negative = inhibition” value was inactive: -2.59%.
With `Cc1ccc(C(=O)N2c3ccccc3N(Cc3ccccc3)C(=O)C2(C)C)cc1` the Potency was inconclusive: 8.91 µM [inhibitor, partial curve, poor fit].
For `Cc1nc2nc(SCc3ccc(F)cc3Cl)nn2c(C)c1Cc1ccccc1`, the “activity, negative = inhibition” value was inactive: -0.354%.
With `COc1cccc(C(=O)NNC2=C(C(=O)C(F)(F)F)CCC2)c1` the Potency was inconclusive: 10 µM [inhibitor, partial curve].
In the case of `CSc1ccc(C(=O)C2CCCN(C(=O)c3nn(C)c(=O)c4ccccc34)C2)cc1` (stereo not given), the Potency is reported as inconclusive: 35.5 µM [inhibitor, single point].
In the case of `CCCn1nc(C(=O)NC2CCCC2)c2ccccc2c1=O`, the “activity, negative = inhibition” value is reported as inactive: 19.2%.
With `COc1ccc(N/N=C(/C#N)S(=O)(=O)C(C)(C)C)cc1` the Potency was inconclusive: 22.4 µM [inhibitor, single point].
With `CCC1CN(C(=O)N2CCC(C(=O)Nc3cc(C)ccc3C)CC2)c2ccccc2O1` (stereo not given) the Potency was inconclusive: 6.31 µM [inhibitor, single point].
For `CCCCOc1ccc(C(=O)CCN2CCCCC2)cc1`, the Potency was inconclusive: 35.5 µM [inhibitor, single point].
For `COc1cc(C2c3c(oc4ccccc4c3=O)C(=O)N2c2nncs2)cc(OC)c1OC` (stereo not given), the “activity, negative = inhibition” value was inactive: -8.28%.
In the case of `COc1ccc(/C=N/Nc2ncnc(Cl)c2N)cc1OC`, the “activity, negative = inhibition” value is reported as inactive: -3.09%.
For `Cc1ccc(C(=O)NNC(=O)c2ccc(S(=O)(=O)N(C)c3ccccc3)cc2)cc1`, the Potency was inconclusive: 0.112 µM [inhibitor, full curve, poor fit].
In the case of `CCC(=O)Nc1c(C)n[nH]c1C`, the Potency is reported as inconclusive: 6.31 µM [inhibitor, full curve, poor fit].
In the case of `O=C(CSc1nnc(CCCO)n1-c1ccccc1)Nc1nccs1`, the “activity, negative = inhibition” value is reported as inactive: -5.34%.
With `Cc1ccc(-c2csc(N3CCN(CCCn4c(C(F)(F)F)nc5ccccc54)CC3)n2)cc1` the Potency was inconclusive: 8.91 µM [inhibitor, partial curve, poor fit].
With `CCOC(=O)c1c(NC(=O)COC(=O)c2ccccc2NC)sc(C(=O)N(C)C)c1C` the Potency was inconclusive: 35.5 µM [inhibitor, single point].
For `CC(C)c1ccc(NC(=O)CSc2n[nH]c(=O)n2Cc2ccco2)cc1`, the Potency was inconclusive: 12.6 µM [inhibitor, single point].
For `COCc1cc(C)nc(SCC(=O)Nc2cccc(C)c2C)c1C#N`, the “activity, negative = inhibition” value was inactive: 1.2%.
In the case of `Nc1nc(NCCCN2CCOCC2)nc(NCc2ccccc2)c1[N+](=O)[O-]`, the Potency is reported as inconclusive: 28.2 µM [inhibitor, single point].
With `COc1cccc(/C=N/NC(=O)c2cnn(-c3ccccc3)c2N)c1` the Potency was inconclusive: 14.1 µM [inhibitor, partial curve, poor fit].
